Out of some 94,000 compounds screened, about 6,200 (6.6%) were called active. Inconclusive means that the source gave no clear call. Such entries were picked first, then a sample of the others. Calls follow the shape of the dose curve; as a rule, active = well fitted inhibition curve with a large enough effect; inconclusive = small, poorly fitted or top-dose-only effect; inactive = flat fitted curve, though single readings scatter. Potencies of inconclusive entries are doubtful fits and often do not repeat.
Test: Cytotoxic Profiling in HEK 293 Cell Line of Diverse Libraries Using Quantitative High-Throughput Screening; also: nearly all actives have a fitted effect of over 60% in size
Settings: HEK 293 viability, ATP luminescence (CellTiter-Glo), 48-72 h; series mostly up to 115 µM; activity change, negative = cytotoxicity: at the top concentration
Outline: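 CellTiter-Glo luminescence (cellular ATP) was read after 48 or 72 hr of compound exposure at 37 degree Celsius. Cells were HEK 293 plated at 250 cells/well.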
% is scaled to controls: 0 for no effect and ±100 for the full control effect; potency is read from the fitted curve at half-maximal effect; tags tell the direction and shape of the fitted curve.

Row | SMILES | activity change, negative = cytotoxicity | Potency | outcome
1 | CC[C@H]1CN2CC[C@H]1C[C@@H]2CNC(=O)CSCC(=O)O | inactive: -7.81% [at 172 µM] |  | 
2 | CCC(CC)c1cc([C@H]2CN3CC[C@H]2C[C@@H]3CNC(=O)COC)nc(-c2ccncc2)n1 | inactive: -14.1% |  | 
3 | O=C1NCCCCCCN(Cc2ccncc2)[C@@H]2CN(C(=O)COc3ccc(F)cc3)CC[C@@H]12 | inactive: -4.71% |  | 
4 | O=C(C1CCCC1)N1[C@H]2CC[C@@H]1c1cnc(-c3ccc(F)cc3)nc1C2 |  | active: 15.8 µM | 
5 | COc1cc2c(cc1Oc1ccccc1)NC(=O)C21CCN(C(=O)c2scnc2C)CC1 |  | active: 44.7 µM | 
6 | O=C(NC[C@H]1C[C@@H]2CCN1C[C@@H]2CN1CCN(c2ccc(F)cc2)CC1)c1ccccc1 |  | inconclusive: 50.1 µM [inhibitor, partial curve, poor fit] | 
7 | Cn1nc(-c2ccc3ccccc3c2)cc1[C@H]1CN2CC[C@H]1C[C@@H]2CNC(=O)c1cccs1 |  | active: 20 µM | 
8 | O=C(Cc1ccccc1)N1[C@H]2CC[C@@H]1c1cnc(-c3ccccc3)nc1C2 |  | inconclusive: 89.1 µM [inhibitor, single point] | 
9 | CCCS(=O)(=O)NC[C@H]1C[C@@H]2CCN1C[C@@H]2c1cc(C(CC)CC)nc(-c2ccncc2)n1 |  | inconclusive: 89.1 µM [inhibitor, partial curve, poor fit] | 
10 | COc1ccccc1-c1cc([C@H]2CN3CC[C@H]2C[C@@H]3COC(=O)NC2CCCCC2)nc(C)n1 |  | active: 11.2 µM | 
11 | COc1cc2c(cc1OCc1ccccc1)NC(=O)C21CCN(C(=O)c2ccccc2)CC1 |  | inconclusive: 50.1 µM [inhibitor, partial curve, poor fit] | 
12 | O=C(Nc1ccc(=O)n2c1[C@@H]1C[C@@H](CN(S(=O)(=O)c3ccccc3)C1)C2)c1cncnc1 |  | inconclusive: 50.1 µM [inhibitor, partial curve, poor fit] | 
13 | Cc1ccccc1-c1ccc2n(c1=O)C[C@H]1C[C@@H]2CN(S(=O)(=O)c2cccs2)C1 | inactive: -1.22% [at 172 µM] |  | 
14 | Cn1nc(-c2ccc(F)cc2)cc1[C@H]1CN2CC[C@H]1C[C@@H]2CNC(=O)NCc1ccccc1 |  | active: 25.1 µM | 
15 | CN(Cc1ccccc1)Cc1cn(C[C@H]2C[C@@H]3CCN2C[C@@H]3C(=O)Nc2ccccc2)nn1 |  | inconclusive: 79.4 µM [inhibitor, partial curve, poor fit] | 
16 | C=C[C@H]1CN2CC[C@H]1C[C@@H]2CNC(=O)CC(C)(C)C | inactive: -13.6% [at 230 µM] |  | 
17 | COc1cc2c(cc1OCc1ccccc1)NC(=O)C21CCN(C(=O)C(C)C)CC1 |  | active: 89.1 µM | 
18 | CC(=O)NC[C@H]1C[C@@H]2CCN1C[C@@H]2c1cc(-c2ccccc2)nc(C)n1 | inactive: -29.8% [at 172 µM] |  | 
19 | O=C(Cc1ccccc1)N1Cc2ccccc2CC2(CCCN2Cc2ccncc2)C1 (stereo not drawn) |  | inconclusive: 79.4 µM [inhibitor, partial curve, poor fit] | 
20 | COc1ccc(CNC[C@H]2C[C@@H]3CCN2C[C@@H]3c2cc(-c3ccc(F)cc3)nn2C)cc1 |  | active: 44.7 µM | 
21 | CCOC(=O)[C@H]1CN(C(=O)c2ccc(F)cc2)[C@]2(C)C(=O)Nc3ccccc3[C@H]12 |  | inconclusive: 31.6 µM [inhibitor, partial curve] | 
22 | CN1Cc2ccccc2-n2ccnc2C12CCN(C(=O)c1ccccn1)CC2 | inactive: 0.424% |  | 
23 | CN(C[C@H]1CN2CC[C@H]1C[C@@H]2CNC(=S)NCc1ccco1)c1ccccc1 |  | active: 39.8 µM | 

Row | SMILES | activity change, negative = cytotoxicity | Potency | outcome
24 | O=C(NC[C@H]1C[C@@H]2CCN1C[C@@H]2CN1CCN(c2ncccn2)CC1)c1ccc(C(F)(F)F)cc1 | inactive: -17.4% |  | 
25 | Cc1ncc2c(n1)C[C@@H]1CC[C@H]2N1C(=O)CCCc1ccccc1 |  |  | inactive
26 | O=C(Nc1ccccc1)OC[C@H]1C[C@@H]2CCN1C[C@@H]2c1cc(C2CCCC2)nc(-c2ccncc2)n1 |  | active: 3.98 µM | 
27 | CC(C)CN1CCNc2cc(-c3ccccc3)ncc2C1 |  | inconclusive: 100 µM [inhibitor, partial curve] | 
28 | CN1CCNc2cc(Nc3ccc(F)c(Cl)c3)ncc2C1 |  | inconclusive: 63.1 µM [inhibitor, full curve, poor fit] | 
29 | CC(C)NC(=O)NC[C@H]1C[C@@H]2CCN1C[C@@H]2c1cc(-c2ccccc2)nn1C | inactive: -1.91% [at 172 µM] |  | 
30 | OC[C@@H]1[C@H]2CN(Cc3ccoc3)CCN2C[C@H]1c1ccccc1 |  | inconclusive: 79.4 µM [inhibitor, partial curve, poor fit] | 
31 | CC(C)NC(=O)N1C2CCC1CN(Cc1cccnc1)C2 | inactive: -1.93% [at 172 µM] |  | 
32 | C#C[C@H]1CN2CC[C@H]1C[C@@H]2CNC(=O)CC(C)(C)CC(=O)O |  | inconclusive: 126 µM [inhibitor, single point] | 
33 | COc1cc2c(cc1OCc1ccccc1)NC(=O)C21CCN(Cc2cccc(O)c2)CC1 |  | active: 35.5 µM | 
34 | Cn1nc(C2CCCCC2)cc1[C@H]1CN2CC[C@H]1C[C@@H]2CNC(=O)Nc1cccc(C#N)c1 |  | inconclusive: 39.8 µM [inhibitor, partial curve] | 
35 | O=C(c1ccc(C(F)(F)F)cc1)N1CCC(C(=O)O)(c2ccccc2)CC1 |  |  | inactive
36 | Cn1ccc2ccc(C(=O)N3CCC(C#N)(c4ccccc4)CC3)cc21 |  | inconclusive: 50.1 µM [inhibitor, partial curve, poor fit] | 
37 | Cn1nc(-c2cccs2)cc1[C@H]1CN2CC[C@H]1C[C@@H]2COC(=O)Nc1ccccc1 |  | active: 44.7 µM | 
38 | CC(C)NC(=O)[C@H]1CN2CC[C@H]1C[C@@H]2Cn1cc(CO)nn1 | inactive: -1.05% [at 172 µM] |  | 
39 | O=C1NC2(CN(Cc3cccnc3)C2)Oc2ccccc21 | inactive: 1.56% [at 172 µM] |  | 
40 | O=c1cccc2n1CC1CC2CN(Cc2cc3n(n2)CCNC3)C1 (stereo not drawn) | inactive: -5.01% |  | 
41 | COc1cccc(CC(=O)N2CCCCCC2CN2CCCC2)c1 (stereo not drawn) |  | inconclusive: 44.7 µM [inhibitor, partial curve, poor fit] | 
42 | CN1c2ncccc2CN(Cc2ccccc2)CC[C@H]1CO |  | inconclusive: 89.1 µM [inhibitor, partial curve] | 
43 | Cc1cccc(OCC(=O)N2[C@H]3CC[C@@H]2c2cnc(-c4ccc(F)cc4)nc2C3)c1 |  | inconclusive: 50.1 µM [inhibitor, partial curve, poor fit] | 
44 | COc1ccc(CC(=O)N2[C@H]3CC[C@@H]2c2cnc(-c4ccccc4)nc2C3)cc1OC |  | inconclusive: 50.1 µM [inhibitor, partial curve, poor fit] | 
45 | O=[S+]1([O-])NC2(CCN(CC3CCCCC3)C2)COc2ccncc21 (stereo not drawn) | inactive: -7.71% |  | 
46 | CC(=O)c1ccc(NC(=O)NC[C@H]2C[C@@H]3CCN2C[C@@H]3CN2CCCCC2)cc1 | inactive: -5.62% [at 172 µM] |  | 

Row | SMILES | activity change, negative = cytotoxicity | Potency | outcome
47 | COc1ccc(NC(=O)NC[C@H]2C[C@@H]3CCN2C[C@@H]3c2cc(-c3ccc(OC)c(OC)c3)nn2C)cc1 |  | inconclusive: 50.1 µM [inhibitor, partial curve, poor fit] | 
48 | O=c1c(C2CCCCC2)ccc2n1C[C@H]1C[C@@H]2CN(S(=O)(=O)c2ccccc2)C1 |  | inconclusive: 126 µM [inhibitor, single point] | 
49 | Cc1nc(-c2ccco2)cc([C@H]2CN3CC[C@H]2C[C@@H]3CNC(=O)C(C)(C)C)n1 | inactive: -17.3% [at 172 µM] |  | 
50 | COc1cc2c(cc1CCc1ccccc1)N(C(=O)CC(C)C)CC21CCN(C(C)=O)CC1 |  | inconclusive: 50.1 µM [inhibitor, partial curve, poor fit] | 
51 | C=C[C@H]1CN2CC[C@H]1C[C@@H]2CNC(=O)Nc1ccc(OC(F)(F)F)cc1 | inactive: -11.6% [at 172 µM] |  | 
52 | O=C(O)C1=NOC2CN(Cc3ccncc3)CC12 (stereo not drawn) | inactive: 4.88% [at 230 µM] |  | 
53 | FC(F)(F)CN1C2CCC1CN(c1nc(Cl)nc3nc[nH]c13)C2 |  | inconclusive: 56.2 µM [inhibitor, partial curve, poor fit] | 
54 | Cc1cccc(OCC(=O)N2CCN(Cc3ccc(=O)n(C)c3)CC2)c1 | inactive: 1.21% |  | 
55 | O=C(NC[C@H]1C[C@@H]2CCN1C[C@@H]2CN1CCN(c2ccc(F)cc2)CC1)Nc1cccc(F)c1 |  | active: 28.2 µM | 
56 | O=C1NC2(Cc3ccccc31)CN(Cc1ccncc1)C2 |  |  | inactive [at 172 µM]
57 | Cc1ccc2c(n1)N(C)[C@H](CO)CCN(CC(C)(C)C)C2 |  | inconclusive: 158 µM [inhibitor, single point] | 
58 | CCOC(=O)[C@H]1CN([S+](=O)([O-])c2cccs2)[C@]2(C)C(=O)N(CC3CC3)c3ccccc3[C@H]12 |  | inconclusive: 35.5 µM [inhibitor, partial curve, poor fit] | 
59 | O=C1NCCCCCCN(Cc2ccncc2F)[C@H]2CCC[C@@H]12 |  | inconclusive: 56.2 µM [inhibitor, partial curve, poor fit] | 
60 | COc1ccccc1-c1cc([C@H]2CN3CC[C@H]2C[C@@H]3CNS(=O)(=O)c2ccc(NC(C)=O)cc2)nc(C)n1 | inactive: -20.5% |  | 
61 | C#C[C@H]1CN2CC[C@H]1C[C@@H]2CNC(=O)C1CC1 | inactive: -2.38% [at 230 µM] |  | 
62 | CCOCC(=O)N1CCC2(CC1)c1nccn1-c1ccccc1CN2CC(C)C |  | inconclusive: 44.7 µM [inhibitor, partial curve] | 
63 | COc1cc2c(cc1CCc1ccccc1)N(C(=O)C1CCC(C)CC1)CC21CCN(C(C)=O)CC1 (stereo not drawn) |  | active: 39.8 µM | 
64 | FC(F)(F)CN1C2CCC1CN(c1nnc(Cl)c3ccccc13)C2 |  | active: 79.4 µM | 
65 | Cc1ncc2c(n1)C[C@@H]1CC[C@H]2N1C(=O)c1cnccn1 | inactive: 0.645% |  | 
66 | O=C(O)CN1CCC[C@]2(C(=O)O)CN(Cc3ccncc3)CC[C@@H]12 | inactive: -1.17% |  | 
67 | CCNC(=O)NC[C@H]1C[C@@H]2CCN1C[C@@H]2c1cc(C2CCCCC2)nn1C |  | inconclusive: 126 µM [inhibitor, single point] | 
68 | O=C(NC[C@H]1C[C@@H]2CCN1C[C@@H]2CN1CCC(Cc2ccccc2)CC1)Nc1ccccc1 |  | active: 31.6 µM | 

Reference: PubChem BioAssay AID1345083 (National Center for Advancing Translational Sciences (NCATS), 2018)
